PubChem BioAssay AID485344 (National Center for Advancing Translational Sciences (NCATS), 2010)
“And” between values parts separate entries of the source, which are not always exact repeats. Identical values can stand only once. Screen size: about 340,000 compounds; about 6,900 (2%) were called active. Rule as the data show it: active = inhibition above about 30%; inactive = below that, where a call was filed. Only a part is listed here, and it is no random draw. Entries without a call were filed so in the source.

Molecular target: D(2) dopamine receptor (Homo sapiens) (UniProt P14416)
Chain of UniProt P14416 (P14416 whole entry, looked up): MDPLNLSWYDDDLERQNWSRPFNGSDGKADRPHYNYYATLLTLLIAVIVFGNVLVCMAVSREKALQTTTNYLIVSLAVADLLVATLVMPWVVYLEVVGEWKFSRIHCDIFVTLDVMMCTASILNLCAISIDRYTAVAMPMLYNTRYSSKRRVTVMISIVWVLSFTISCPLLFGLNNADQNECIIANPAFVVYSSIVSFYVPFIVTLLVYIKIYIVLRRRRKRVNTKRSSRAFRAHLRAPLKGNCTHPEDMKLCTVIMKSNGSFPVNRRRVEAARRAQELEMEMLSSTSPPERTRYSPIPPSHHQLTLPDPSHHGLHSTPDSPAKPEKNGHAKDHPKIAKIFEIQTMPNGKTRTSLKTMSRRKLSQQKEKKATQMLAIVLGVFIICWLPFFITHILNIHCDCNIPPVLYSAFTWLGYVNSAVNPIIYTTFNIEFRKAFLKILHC
Experiment: HTS Assay for Allosteric Antagonists of the Human D2 Dopamine Receptor: Primary Screen for Antagonists; also: 0% is about no effect
Settings: HEK293 TREx D2 cells, calcium flux, dopamine EC80; at 10 µM; stronger effect = higher value
Procedure, shortened: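 Compounds are added to dye-loaded, induced HEK293 T-REx cells coupled to calcium release via D2; after a 3 min kinetic read an EC80 dopamine stimulus is given and fluorescence is recorded for 3 more min.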

| SMILES | inhibition |
| --- | --- |
| COc1cc(C(=O)OC(C)C(=O)N2CCCC2)cc2c1OCCO2 (stereo not given) | active: 67.1% |
| CCOc1ccc(C(=O)Nc2ccccc2NC(C)=O)cc1OCC | active: 103% |
| COc1ccc(-c2noc(-c3ccc(NC(C)c4ccccc4)c([N+](=O)[O-])c3)n2)cc1OC (stereo not given) | 25.5% |
| Cc1ccc(-c2nn3c(-c4ccc(C)cc4)nnc3c3ccccc23)cc1 | -1.6% |
| COc1ccccc1-n1c(SCC(=O)Nc2ccc(C)cc2)nc(O)cc1=O | 15.6% |
| COc1cc(NC(=O)c2ccc3c(c2)OCO3)ccc1NC(=O)C(C)C | active: 64.3% |
| COc1cc(CN(C(=O)c2oc3ccccc3c2C)C2CCS(=O)(=O)C2)cc(OC)c1OC (stereo not given) | 0.357% |
| CC(=O)Nc1ccc(S(=O)(=O)NCCc2csc3nc(-c4cccc(C)c4)nn23)cc1 | -15.4% |
| O=C(c1ccco1)n1nc(-c2ccccc2)nc1NCc1ccccc1Cl | 5.71% |
| Cc1ccc(N(Cc2cccs2)C(=O)COc2ccccc2[N+](=O)[O-])cc1 | 13.9% |
| O=C(NCc1ccccc1Cl)C1CCC(CNS(=O)(=O)c2ccc(Br)s2)CC1 (stereo not given) | -3.23% |
| Cc1cccc(-c2nc(Cn3c(SCc4cc(C)ccc4C)nc4ccncc43)c(C)o2)c1 | -8.08% |
| O=C(NCc1ccccc1)C(=O)NCC(c1cccnc1)N1CCN(c2ccccc2)CC1 (stereo not given) | 11.9% |
| CCOC(=O)C1CCCN(C(=O)c2cc(Cl)ccc2Cl)C1 (stereo not given) | active: 30.8% |
| COc1ccccc1N(CC(O)Cn1ccnc1C)S(=O)(=O)c1ccc(C)cc1 (stereo not given) | active: 67.2% |
| CCc1cccc(NC(=O)CN2C=NS(=O)(=O)c3ccccc32)c1 | 9.32% |
| Cc1ccc(NC(=O)CCc2c(C)nc3nc(C)nn3c2C)c(Cl)c1 | -6.22% |
| Cc1ccc(C)n1-c1nnc(N2CCCC(C(=O)NCc3ccccc3)C2)s1 (stereo not given) | 8.25% |
| COc1cc2nc(NCC(C)c3ccccc3)n3nc(-c4ccccc4)nc3c2cc1OC (stereo not given) | -5.19% |
| CCOc1nc(NC(=O)NS(=O)(=O)Oc2ccccc2Cl)nc(-c2ccccc2)n1 | 9.22% |
| CNC(=O)c1ccc(Nc2nnc(-c3ccc(C)c(S(=O)(=O)N4CCOCC4)c3)c3ccccc23)cc1 | -3.15% |
| CCOC(=O)c1ccccc1NC(=O)N(Cc1ccco1)C1CCN(C(C)=O)CC1 | -7.49% |
| Cc1ccc(NC(=O)c2ccc(Br)cc2)c(C(=O)c2ccccc2)c1 | 27.9% |
| Cc1nc2nc(SCC(=O)NCc3ccccc3)nn2c(C)c1Cc1ccccc1 | -1.68% |

| SMILES | inhibition |
| --- | --- |
| CC(C)CC(=O)Nc1ccc(Cl)c(-c2nc3ccccc3[nH]2)c1 | 15.9% |
| COc1ccc(OC)c(CNC(=O)CN2C(=O)CCn3nc(-c4cn(C)c5ccccc45)cc32)c1 | -17.3% |
| N#Cc1ccc(NS(=O)(=O)c2ccc(-c3cnc(C4CC4)o3)cc2)cc1 | 26.4% |
| Cc1nc2cc(C(=O)O)ccc2n1-c1ccc(C(C)C)cc1 | -4.25% |
| CCOC(=O)c1sc(NC(=O)c2cc3nc(-c4ccc(Br)cc4)cc(C(F)(F)F)n3n2)c(C(=O)OCC)c1C | 11.7% |
| CCOC(=O)CCn1nc(C)c2c(C)n(-c3ccccc3)nc2c1=O | 11.2% |
| Cc1cccc(N2CCN(C(=O)Cn3c(=O)c4cccn4c4ccc(F)cc43)CC2)c1C | 12.5% |
| COc1ccccc1C(=O)NC(=O)Nc1ccc(-n2nc(C(F)(F)F)cc2C(F)(F)F)cc1 | 3.2% |
| Cc1ccc(N2CC(NC(=O)CCc3ccccc3)CC2=O)cc1 (stereo not given) | 15.8% |
| COc1cccc(CSc2nc3n(n2)C(c2cccnc2)C(C(=O)Nc2ccccc2C)=C(C)N3)c1 (stereo not given) | 14.9% |
| COc1ccc(-c2ccc3c(N)c(C(=O)Nc4cccc(C)c4)sc3n2)cc1 | 2.43% |
| O=C(NCCN1CCN(c2ccccc2)CC1)c1cccc(Cl)c1 | active: 70.4% |
| CC1=C(C(=O)NCc2ccc(Cl)cc2)C2(CCCCCC2)OC1=O | 1.95% |
| CCN(CC(=O)Nc1cc(Cl)ccc1C)C(=O)C1CC1 | active: 55.7% |
| COc1ccccc1C(=O)Nc1ccc(C(=O)OCc2cc(=O)n3ccsc3n2)cc1 | 7.19% |
| Cc1ccc(NC(=O)c2cc(S(=O)(=O)NC3CCCCCC3)ccc2F)cc1F | -23.2% |
| CCOc1ccc(-c2nnc(SCC(=O)NCc3ccc(Cl)cc3)o2)cc1 | 25.5% |
| COc1ccc2[nH]cc(CCN=C(NC(=O)c3cccc(Cl)c3)Nc3nc(C)cc(C)n3)c2c1 | -19.8% |
| C=C1C(=O)C=C[C@]2(C)C[C@@H]3OC(=O)[C@](C)(O)[C@H]3C[C@@H]12 | active: 36.7% |
| O=C(CCN1CCN(c2ccccc2)CC1)Nc1nccs1 | active: 92.6% |
| O=C(Nc1ccc(Br)cc1)c1cc2nc(-c3ccccc3)cc(-c3ccccc3)n2n1 | 0.176% |
| CCOC(=O)C1CCCN(C(=O)Cn2c(=O)cc(C)c3c(C)nn(C)c32)C1 (stereo not given) | 9.78% |
| COc1ccc(C(=O)c2cnc3ccc(C)cc3c2S(=O)(=O)c2ccccc2)cc1 | 0.14% |
| COc1ccc(S(=O)(=O)N2CCC(C(=O)NC(C)c3ccccc3)CC2)cc1 (stereo not given) | -26.9% |

| SMILES | inhibition |
| --- | --- |
| Cc1ccc(CN2C(=O)C(O)(CC(=O)c3ccc(C)cc3)c3ccccc32)cc1 (stereo not given) | 9.51% |
| CC(C)n1nnnc1SCC(=O)N1N=C(c2cccs2)CC1c1cccs1 (stereo not given) | active: 38.7% |
| CCc1ccccc1NC(=O)CC(C)S(=O)(=O)c1ccc2c(c1)NC(=O)CO2 (stereo not given) | -15.7% |
| CCc1ccc2occ(CC(=O)Nc3nnc(C)s3)c2c1 | 7.17% |
| O=C(CSc1nc2c([nH]c3ccccc32)c(=O)n1-c1ccccc1)NCc1ccc(F)cc1 | 19.1% |
| CCNC(=O)C1CCN(c2nc3ccccc3nc2C(F)(F)F)CC1 | -11.2% |
| O=C(CN1C(=O)C2(SCC(=O)N2c2ccccc2)c2ccccc21)Nc1ccccc1C(F)(F)F (stereo not given) | 6.25% |
| CCOc1ccc(NC(=O)Cn2cc(S(=O)(=O)c3ccc(C)cc3)c(=O)c3cc(F)ccc32)cc1 | 21.6% |
| CC(=O)c1nn(-c2ccc(OC(F)(F)F)cc2)nc1Nc1ccc(Cl)cc1 | 6.84% |
| CN1CCN(c2oc(-c3ccccc3Cl)nc2S(=O)(=O)c2ccccc2)CC1 | active: 78.6% |
| COc1cc(CN(C(=O)COc2ccc(Cl)cc2)c2ccccn2)cc(OC)c1OC | 5.5% |
| Cc1ccc(C)c(NC(=O)C2CCN(c3ncnc4c3nc3n4CCCCC3)CC2)c1 | 3.09% |
| COc1ccc(OC)c(C2=NS(=O)(=O)N(C)C(C(=O)Nc3ccc(C(C)=O)cc3)=C2)c1 | 6.19% |
| CN(C(=O)Nc1ccccc1)C1CCCc2ccccc21 (stereo not given) | active: 30.4% |
| CCN1CCN(C(=O)c2oc(=O)c3ccccc3c2-c2ccc(C)cc2)CC1 | active: 59.2% |
| Cc1cccc(C)c1NC(=O)NCCCN1CCN(c2ccccc2)CC1 | -6.7% and active: 72.4% |
| CC(C)(C)c1ccc(C(=O)NNc2ncnc3c2cnn3-c2ccc(Cl)cc2)cc1 | 0.982% |
| O=C(CSc1ccccc1)N1CCc2c([nH]c3ccccc23)C1c1ccc(Cl)cc1 (stereo not given) | -10.1% |
| Cc1cccc(S(=O)(=O)c2cn(C)c3cc(N4CCCCCC4)c(F)cc3c2=O)c1 | -1.66% |
| COc1cccc(C(=O)c2cn(CC(=O)Nc3cc(Cl)c(OC)cc3OC)c3nc(C)ccc3c2=O)c1 | 4.69% |
| COc1ccc(NC(=O)Cn2nc3c(cc2=O)CCCC3)cc1Cl | -10.3% |
| CCCCc1nn2c(=O)cc(CN(CC)c3ccccc3)nc2s1 | -3.93% |
| Cc1nc(N2CCCC2)ncc1C(=O)NCc1ccc(Cl)cc1 | 20.3% |
| CC1=C(c2ccc(F)cc2)S(=O)(=O)N=C1N1CCC(C(=O)NCCc2ccccc2)CC1 | 8.49% |

| SMILES | inhibition |
| --- | --- |
| COc1ccccc1N1CCN(S(=O)(=O)c2ccc(-c3ccno3)cc2OC)CC1 | 27.7% |
| O=C(NCc1ccc(Cl)cc1)c1cc2ccc3cccnc3c2[nH]1 | 18.8% |
| CC(C)c1ccc(Cc2cn3cc(-c4cc5ccccc5oc4=O)nc3s2)cc1 | -1.47% |
| Cc1ccc(NC(=O)NCCOCCn2c(=O)oc3ccccc32)c(C)c1 | 7.57% |
| Cc1ccccc1C(=O)Nc1sc2c(c1C(=O)O)CCC(C(C)(C)C)C2 (stereo not given) | 4.52% |
| Cc1ccc(C2C(=O)N(C3CCCCCC3)CC(=O)N2C(C)C)cc1 (stereo not given) | -4.2% |
| O=C(CSc1nc2c([nH]c3ccccc32)c(=O)n1-c1ccc(F)cc1)NCC1CCCO1 (stereo not given) | -11% |
| O=C(CSc1nc2c([nH]c3ccccc32)c(=O)n1-c1ccccc1)N1CCCc2ccccc21 | 7.79% |
| CC(C)C[C@@H](C(=O)NC1CCN(Cc2ccccc2)CC1)N1C(=O)N2CCc3c([nH]c4ccccc34)[C@@]2(C)C1=O | active: 30.9% |
| CNC(=O)C1CCC(Cn2c(=O)c3sccc3n(CC(=O)NCc3ccc(C)cc3)c2=O)CC1 (stereo not given) | -10.5% |
| Cc1cc(C)c2c(n1)SCC(=O)N2CC(=O)Nc1ccccc1C | 1.63% |
| COc1ccccc1N1CCN(CCCNC(=O)Nc2ccccc2C)CC1 | active: 86.9% |
| Cn1c(=O)oc2cc(S(=O)(=O)N3CCCC(C(=O)NCc4ccccc4Cl)C3)ccc21 (stereo not given) | -8.31% |
| COc1ccc(NC(=O)Cn2c(=O)oc3cc(Cl)ccc32)c(OC)c1 | -19.1% |
| CCc1ccc(NC(=O)CSc2nc(C)c(C(=O)Nc3ccc(Cl)cc3)c(-c3ccc(OC)cc3)c2C#N)cc1 | -10.1% |
| CCOc1ccccc1N1CCN(C/C=C/c2ccc(N(C)C)cc2)CC1 | active: 78.8% |
| COc1ccc(C(=O)n2nc(-c3ccc(Cl)cc3)nc2NCc2ccco2)cc1 | -27.5% |
| CN(C)S(=O)(=O)c1ccc(C(=O)Nc2c(C(=O)Nc3ccc(F)cc3)oc3ccccc23)cc1 | -5.61% |
| CCOc1ccc(NC(=O)CSc2ncnc3c2sc2ccccc23)cc1 | 4.67% |
| c1ccc(Nc2ccccc2Nc2ccccn2)nc1 | active: 33.7% |
| CCc1ccc(NC(=O)c2cc3c(COC(C)=O)cnc(C)c3oc2=O)cc1 | -0.117% |
| COC(=O)c1sc(-c2ccccc2)cc1NC(=O)Nc1ccccc1Cl | 9.5% |
| CCOC(=O)N1CCc2c(sc3c2c(=O)n(Cc2ccccc2)c(=O)n3CC(=O)Nc2cccc(C)c2)C1 | 4.25% |
